In all, about 390,000 compounds went through this assay and about 930 (0.24%) were called active. The shares of active, inactive and inconclusive entries below differ from those in the screen. Calls follow the shape of the dose curve; as a rule, active = well fitted activation curve with a large enough effect; inconclusive = small, poorly fitted or top-dose-only effect; inactive = no such curve, though single readings can be large or run the other way. A potency beside an inconclusive call is a rough fit, not a confirmed value.
Assay: qHTS for Suppressors of FUS Proteinopathy: Primary screen using FUS-linked yeast assay; also: nearly all actives have a fitted effect of over 55% in size;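 as to growth rescue (activation): plate controls were DMSO vehicle for no effect and reference control for full effect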
Conditions: S. cerevisiae FUS-expressing, OD600, 24 h; Potency: growth rescue; growth rescue (activation): at 76.6 µM (top of the series)
How it was run: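 S. cerevisiae expressing FUS from galactose induction served as the toxicity model. Growth after 24hr at 30C, read as absorbance at 600 nm, indicates suppression of toxicity; compounds dosed at several concentrations.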
For `CCCCCCCCN1C(=O)[C@H](CC(=O)NCc2ccc(C)o2)C[C@@]2(C(=O)OC)CCCCC=C12`, the Potency was inconclusive: 10 µM [activator, partial curve, poor fit]. With `Cc1onc(-c2c(F)cccc2Cl)c1C(=O)NCC1COc2ccccc2O1` (stereo unspecified) the growth rescue (activation) was inconclusive: 62.3% [activator]. With `Cc1c(C(=O)NCc2ccc3c(c2)OCO3)oc2ccc(S(=O)(=O)N3CCCCC3)cc12` the Potency was inconclusive: 25.1 µM [activator, partial curve, poor fit]. With `COc1cc(C(c2c(C)[nH][nH]c2=O)c2c(C)[nH][nH]c2=O)ccc1OCc1ccc([N+](=O)[O-])cc1` the Potency was inconclusive: 28.2 µM [activator, partial curve, poor fit]. For `COc1cc(OC)cc(-c2sc3ccc(OC)cc3c2C#CC(C)(C)O)c1`, the Potency was inconclusive: 35.5 µM [activator, single point]. With `COc1ccccc1-c1ncn(Cc2cccc(-c3ccccc3)c2)c1-c1ccco1` the Potency was inconclusive: 14.1 µM [activator, partial curve, poor fit]. In the case of `CC[n+]1c(/C=C/C=C/N(C(C)=O)c2ccccc2)sc2ccccc21`, the Potency is reported as active: 17.8 µM. For `COc1ccc(-n2nc(C(=O)NCC(=O)NCCC3=CCCCC3)c3ccccc3c2=O)cc1`, the “growth rescue (activation)” value was inactive: 33.9%. With `N=c1n(CC(=O)c2ccc(Br)cc2)c2ccccc2n1Cc1ccccc1` the Potency was inconclusive: 44.7 µM [activator, single point]. In the case of `Nc1ccc2oc(-c3cccc4ccccc34)nc2c1`, the Potency is reported as inconclusive: 20 µM [activator, partial curve, poor fit]. In the case of `CN(Cc1ccccc1)C(c1ccnc2ccccc12)c1nnnn1-c1ccc2c(c1)OCCO2` (stereo unspecified), the Potency is reported as inconclusive: 50.1 µM [activator, single point]. With `Cc1cc(-c2ccc(C)c(S(=O)(=O)NC(c3cccs3)C(C)C)c2)on1` (stereo unspecified) the Potency was inconclusive: 31.6 µM [activator, single point]. In the case of `O=C(Nc1ccccc1O)c1cc(S(=O)(=O)N2CCOCC2)c(Cl)cc1Cl`, the Potency is reported as inconclusive: 0.891 µM [activator, full curve, poor fit]. For `S=c1nc(-c2ccccc2)n(CCN2CCOCC2)c2c1CCCC2`, the Potency was inconclusive: 20 µM [activator, partial curve, poor fit]. For `COc1ccc(OC)c(C2Nc3c(Cl)ccc(C(=O)O)c3C3C=CCC32)c1` (stereo unspecified), the Potency was inconclusive: 50.1 µM [activator, single point]. In the case of `CCOc1ccc(OCCC(=O)OCC(=O)Nc2cc(S(=O)(=O)N3CCOCC3)ccc2OC)cc1`, the Potency is reported as inconclusive: 50.1 µM [activator, single point]. With `COC(=O)c1ccccc1NC(=O)N1CCN(c2ccc(F)cc2)CC1` the Potency was inconclusive: 50.1 µM [activator, single point]. In the case of `COc1ccc(NC(=O)Nc2cccc3c2O[C@H](CN(C)S(=O)(=O)c2cccs2)[C@@H](C)CN([C@H](C)CO)C3=O)cc1`, the Potency is reported as inconclusive: 31.6 µM [activator, single point]. For `COC(=O)[C@]12CCCCC=C1N(CCc1ccc(OC)c(OC)c1)C(=O)[C@H](CC(=O)N1CCC(c3ccccc3)CC1)C2`, the Potency was inconclusive: 17.8 µM [activator, single point]. In the case of `CN(C)c1ccc(-c2nc3cc(N)ccc3o2)cc1`, the Potency is reported as inconclusive: 11.2 µM [activator, single point]. With `CC(C)Oc1ccc(S(=O)(=O)N2CCCCC2)cc1NC(=O)CN1C(=O)NC(C)(c2ccccc2)C1=O` (stereo unspecified) the Potency was inconclusive: 39.8 µM [activator, partial curve, poor fit]. In the case of `COc1ccccc1NC(=O)c1cc2ccc3cccnc3c2[nH]1`, the Potency is reported as inconclusive: 28.2 µM [activator, single point]. In the case of `COc1cccc(CN2C(=O)c3ccccc3Sc3ccc(C(=O)N(C)Cc4ccccc4)cc32)c1`, the Potency is reported as inconclusive: 7.94 µM [activator, partial curve]. For `O=S(=O)(NCc1ccccc1)c1ccc(-n2cccn2)cc1`, the “growth rescue (activation)” value was inactive: -2.81%. With `O=C1CCN(CCc2ccccc2)CCN1CCO` the “growth rescue (activation)” value was inactive: -18.1%. For `Oc1ccc(CNc2ccccc2Br)c2cccnc12`, the Potency was active: 17.8 µM. In the case of `O=C(CCl)c1ccc(Cc2ncc(C(F)(F)F)cc2Cl)s1`, the “growth rescue (activation)” value is reported as inactive: 21%. With `Cc1ccc(S(=O)(=O)N2CCN(C(=O)c3cc4c(C)nn(-c5ccccc5)c4s3)CC2)cc1` the Potency was inconclusive: 10 µM [activator, full curve, poor fit]. In the case of `CN(CCc1ccccc1)C(=O)c1cccc(NC(=O)Cc2cccc(NC(=O)C3CCN(C(=O)C4CCC4)CC3)c2)c1`, the Potency is reported as inconclusive: 25.1 µM [activator, single point]. With `O=C1CC(c2ccccc2)Cc2nc(N3CCc4ccccc4C3)ncc21` (stereo unspecified) the Potency was inconclusive: 44.7 µM [activator, single point]. With `CCOC(=O)[C@@]12CCCC3=C1N(CCC3)C(=O)[C@H]2CC(=O)NCC12CC3CC(CC(C3)C1)C2` the Potency was inconclusive: 28.2 µM [activator, single point]. For `C=CCn1c(SCc2c(C)noc2C)nc2sc3c(c2c1=O)CCCCC3`, the “growth rescue (activation)” value was inactive: 24.4%. In the case of `COc1ccc(CNC(=O)C[C@H]2C[C@H](C(=O)N3CCCCC3)[C@@]3(C)c4[nH]c5cc(-c6ccco6)ccc5c4CCN3C2=O)cc1OC`, the Potency is reported as inconclusive: 50.1 µM [activator, single point]. With `CCCCOc1ccc(C(=O)N/C(=C/C=C/c2ccccc2)C(=O)NC)cc1` the Potency was inconclusive: 50.1 µM [activator, single point]. With `CCOP(=O)(OCC)c1nc(-c2ccc(Cl)cc2)oc1NCc1ccccc1` the Potency was inconclusive: 28.2 µM [activator, single point]. For `COc1ccc(OC)c(CCNC(=O)c2c(C)nn(-c3ccc(F)cc3)c2-n2cccc2)c1`, the Potency was inconclusive: 12.6 µM [activator, partial curve]. With `Cc1nnc(NC(=O)Cc2ccc(OCc3c(C)noc3C)cc2)s1` the Potency was active: 14.1 µM. In the case of `COC(=O)c1ccc(OCC2c3cc(OC)c(OC)cc3CCN2C(=O)C(C)C)cc1` (stereo unspecified), the “growth rescue (activation)” value is reported as inactive: 30.8%. For `COc1ccc(NC(=O)c2cccc(Oc3ccccc3)c2)cn1`, the “growth rescue (activation)” value was inactive: 10.1%. For `COc1ccc(C(=O)NCCc2sc(-c3ccc(Cl)cc3)nc2C)c(OC)c1`, the “growth rescue (activation)” value was inactive: 35.7%. With `COc1ccc(C)cc1NC(=O)NCc1ccc2c(c1)CCN2C(=O)c1ccccc1` the Potency was inconclusive: 39.8 µM [activator, single point]. With `CCOC(=O)c1cnc2cc(-c3ccc(C)cc3)nn2c1-c1ccccc1` the Potency was inconclusive: 3.55 µM [activator, full curve]. In the case of `CC(=O)N(Cc1ccc(F)cc1)C1=C(NCCc2ccccc2)C(=O)c2ccccc2C1=O`, the Potency is reported as inconclusive: 20 µM [activator, partial curve, poor fit]. In the case of `COc1cc(OC)c(OC)cc1/C=C1\CCC(C2CCCC2)C1=O` (stereo unspecified), the Potency is reported as inconclusive: 50.1 µM [activator, single point]. With `Nc1ccc2oc(-c3ccc4nc[nH]c4c3)nc2c1` the Potency was inconclusive: 20 µM [activator, partial curve, poor fit]. With `OCCCc1nc2n(n1)C(c1ccccc1Cl)C=C(c1cccs1)N2` (stereo unspecified) the Potency was inconclusive: 39.8 µM [activator, single point]. In the case of `Cc1ccnn1CC(=O)N/N=C/c1ccc([N+](=O)[O-])s1`, the “growth rescue (activation)” value is reported as inactive: -20.5%. For `CS(=O)(=O)c1nc(-c2ccc(Br)cc2)cs1`, the “growth rescue (activation)” value was inactive: -5.1%. With `CCN1C(=O)[C@H]2[C@@H](c3ccc(-c4ccc(F)cc4)c(OC)c3)N3CCCC[C@@]3(C(=O)OC)[C@H]2C1=O` the Potency was inconclusive: 22.4 µM [activator, single point]. In the case of `Cc1ccccc1-c1cc2nc(NCCOc3ccccc3Cl)n(C)c(=O)c2s1`, the Potency is reported as inconclusive: 35.5 µM [activator, single point]. In the case of `CSC1=NSC2=NC(=O)/C(=C\c3ccc(OC(=O)c4ccco4)cc3)C(=N)N12`, the Potency is reported as inconclusive: 44.7 µM [activator, partial curve, poor fit]. For `CC(C)CC(COCc1cccc(Cl)c1)N1CCN(C(=O)c2ccc(C(F)(F)F)cc2)CCC1=O` (stereo unspecified), the Potency was inconclusive: 3.55 µM [activator, full curve]. With `Cc1ccc(N2CCN(C(=O)c3cc(-c4ccc(F)cc4)[nH]c3C)CC2C)cc1` (stereo unspecified) the Potency was inconclusive: 20 µM [activator, single point]. With `COc1ccc2c(c1)C(=O)N1[C@H]3c4cc(OC)ccc4OC[C@@H]3[C@H](c3ccccc3)[C@]1(C)C(=O)N2` the Potency was inconclusive: 20 µM [activator, partial curve, poor fit]. In the case of `CCc1nn(CCCC(=O)N2CCc3ccccc3C2)c(=O)c2cc3occc3n12`, the Potency is reported as inconclusive: 10 µM [activator, partial curve]. In the case of `Cc1cc(F)ccc1S(=O)(=O)Nc1ccc2c(c1)CCCN2C(=O)c1cccs1`, the Potency is reported as inconclusive: 44.7 µM [activator, single point]. With `O=C(Oc1cccc(NC(=O)c2ccco2)c1)c1cccc(S(=O)(=O)N2CCCC2)c1` the Potency was inconclusive: 31.6 µM [activator, partial curve, poor fit]. With `Cc1ccc(S(=O)(=O)NC(CC(=O)NC2CCCC2)c2ccco2)cc1` (stereo unspecified) the “growth rescue (activation)” value was inactive: -14.1%. For `CCOC(=O)Cn1nc(/C=C/c2ccc(C(C)C)cc2)ccc1=O`, the Potency was inconclusive: 50.1 µM [activator, single point]. With `CC(=O)Nc1ccc(OCCOc2ccc(/C=C3/C(=N)N4C=CSC4=NC3=O)cc2)cc1` the Potency was inconclusive: 8.91 µM [activator, partial curve]. For `O=C(c1ccc2nc[nH]c2c1)N1CCN(c2cccc(C(F)(F)F)c2)CC1`, the “growth rescue (activation)” value was inactive: 5.05%.
Potency is read from the fitted curve at half-maximal effect; tags tell the direction and shape of the fitted curve.
